Data published in patent US20120189670A1, “PHARMACEUTICAL COMPOSITIONS AND FORMULATIONS INCLUDING INHIBITORS OF THE PLECKSTRIN HOMOLOGY DOMAIN AND METHODS FOR USING SAME” (priority 2009, published 2012).
Values after ≈ are worked out from the molar mass of the structure shown. Read-outs that look alike come from different tables or passages of the source.

Assays:
HaCaT cells = test: Apoptosis (PARP cleavage) in HaCaT cells; format: cell-based, human; conditions: 10 μM
From the text: (§1) […]. […] […].

PC3 prostate cancer = test: Antitumor activity, oral gavage, PC3 xenograft; format: in vivo, mouse; conditions: PC3, 125 mg/kg BID × 5 D oral
PH domain of PDK1 [1] = molecular target: T1, PH domain of PDK1 (Homo sapiens, UniProt O15530); test: SPR competitive binding, Ki, PDK1 PH domain
T1 sequence (O15530 459-550 limits assumed): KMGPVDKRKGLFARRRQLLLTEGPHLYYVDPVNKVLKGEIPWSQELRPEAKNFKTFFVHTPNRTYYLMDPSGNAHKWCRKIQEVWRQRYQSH

Excipient solubility = format: physicochemical; conditions: thermodynamic from solid
Protocol: The solutions were rotated at room temperature for 24 hours. After rotation, if there was no evidence of precipitated compound, additional compound 104 was added and dissolution processes were repeated. […] The low solubilities found in the various plant based oils tested (avocado, vitamin E, soybean, sesame and safflower) were unexpected. the long hydrocarbon chain present in compound 104 would be expected to render it similar in polarity to the variety of nonpolar hydrocarbons present in plant based oils. […] HPLC Assay. […] The run time was 5 minutes and the injection volume was 2 μL.

[2] = system: Panc-1 pancreatic cell line; test: Apoptosis, morphological assay, Panc-1; format: cell-based, human; conditions: Panc-1, 20 μmol/L
From the text: AKT inhibition leads to cellular apoptosis.

HaCat-II,4 cells = test: Apoptosis (PARP cleavage) in HaCaT-II,4 cells; format: cell-based, human; conditions: 10 μM
From the text: as §1

PH domain of PDK1 [3] = molecular target: T1, PH domain of PDK1; test: SPR direct binding, KD, PDK1 PH domain
Protocol: Binding assays using SPR and an ELISA competitive binding assay were used to measure the binding affinity (KD) of the compounds to all three PH domains. SPR was carried out as described above. […] Purified GST-PH domains were incubated with increasing concentrations of the compounds under analysis for about 4 hours in 0.2 M carbonate buffer pH 9.4 and were added to the 96-well plate and incubated overnight at 4° C. Following incubation, the plate was washed 4 times with phosphate buffered 0.9% NaCl (PBS), blocked with 3% bovine serum albumin (BSA) in PBS and 0.01% Tween for 1 hour, washed again 4 times with PBS and mouse monoclonal anti-glutathione-S-transferase antibody in 3% BSA (1:2000) was added for 1 hr at room temperature with shaking. The plate was washed 4 times with PBS and an anti-mouse IgG horseradish peroxidase coupled antibody (dilution 1:2000 in 3% BSA) was added for 1 hr. After 4 washes with PBS, 2,2′-azinobis[3-ethylbenzothiazoline-6-sulfonic acid]-diammonium salt (ABST) was added and the reaction was allowed to develop for 30 min.

[4] = for degradation in Vehicle #3: 20 mg/mL
A549 nsc lung cancer = test: Antitumor activity, oral gavage, A549 xenograft; format: in vivo, mouse; conditions: A549, 200 mg/kg BID × 10 D oral

Question: Which results are given for `CCCCCCCCCCCCc1ccc(S(=O)(=O)Nc2nncs2)cc1` [Compound 104, 4-Dodecyl-N-(1,3,4-thiadiazol-2-yl)benzenesulfonamide]?
Answer: apoptosis (HaCaT cells): 80%; Growth rate (PC3 prostate cancer): 470 ± 121 mm^3/10 days; Ki (PH domain of PDK1 [1]): 5.5 µM; solubility at 24 h (Excipient solubility; oil or lipid, in Acconon MC-8 EP/NF): 83700 µg/mL (≈ 204 mM); solubility at 24 h (Excipient solubility; oil or lipid, in Aquaphor): < 10 µg/mL; solubility at 24 h (Excipient solubility; oil or lipid, in Avocado Oil/Vitamin E Oil (50/50) by % volume): 1400 µg/mL (≈ 3.42 mM); solubility at 24 h (Excipient solubility; oil or lipid, in Capmul MCM L): 5300 µg/mL (≈ 12.9 mM); solubility at 24 h (Excipient solubility; oil or lipid, in Captex 200P): 6800 µg/mL (≈ 16.6 mM); solubility at 24 h (Excipient solubility; oil or lipid, in Captex 355 EP/NP): 4700 µg/mL (≈ 11.5 mM); solubility at 24 h (Excipient solubility; oil or lipid, in Captex 810 D): 2400 µg/mL (≈ 5.86 mM); solubility at 24 h (Excipient solubility; oil or lipid, in Gelucire 44/14): 35200 µg/mL (≈ 85.9 mM); solubility at 24 h (Excipient solubility; oil or lipid, in Labrafil): 10400 µg/mL (≈ 25.4 mM); solubility at 24 h (Excipient solubility; oil or lipid, in Labrasol): 53200 µg/mL (≈ 130 mM); solubility at 24 h (Excipient solubility; oil or lipid, in Mineral Oil): < 10 µg/mL; solubility at 24 h (Excipient solubility; oil or lipid, in Safflower Oil): 1100 µg/mL (≈ 2.69 mM); solubility at 24 h (Excipient solubility; oil or lipid, in Sesame Oil): 1200 µg/mL (≈ 2.93 mM); solubility at 24 h (Excipient solubility; oil or lipid, in Soybean Oil): 1100 µg/mL (≈ 2.69 mM); solubility at 24 h (Excipient solubility; organic solvent or mixture, in Acetone): 74000 µg/mL (≈ 181 mM); solubility at 24 h (Excipient solubility; organic solvent or mixture, in Benzyl Alcohol): 78100 µg/mL (≈ 191 mM); solubility at 24 h (Excipient solubility; organic solvent or mixture, in Dimethylacetamide (DMA)): 87400 µg/mL (≈ 213 mM); solubility at 24 h (Excipient solubility; organic solvent or mixture, in Glycerol): 10 µg/mL (≈ 0.0244 mM); solubility at 24 h (Excipient solubility; organic solvent or mixture, in N-methylpyrrolidone (NMP)): 161000 µg/mL (≈ 393 mM); solubility at 24 h (Excipient solubility; in Water): < 1 µg/mL; Apoptosis at 20 μmol/L [2]: 40.0 ± 2.9/ %; apoptosis (HaCat-II,4 cells): 60%; Kd (PH domain of PDK1 [3]): 90.1 µM; degradation in Vehicle #3 ([4]; 4° C., 56 day period): No significant degradation; degradation in Vehicle #3 ([4]; 25° C., 56 day period): No significant degradation; degradation in Vehicle #3 ([4]; 40° C., between 28 and 42 days): significant degradation; time to reach the 90% threshold ([4]; Vehicle #3, 40° C.): 6 weeks; time to reach the 90% threshold ([4]; Vehicle #3, 60° C.): 1.1 weeks; time to reach the 90% threshold ([4]; Vehicle #3, 75° C.): 0.57 weeks; time to reach the 90% threshold ([4]; Vehicle #3, 100° C.): 0.3 weeks; shelf life ([4]; Vehicle #3, room temperature (25° C.), extrapolated Arrhenius plot): 2.4 years; Growth rate (A549 nsc lung cancer): 182 ± 47 mm^3/10 days
